{"source": "paper PMC5892938", "note": "The other results are listed elsewhere or left out. At the low end of the ranking the order means little.", "data": [{"molecular_target": "GST-SBP-SLBP (stem-loop binding protein) (UniProt Q14493)", "test": "targeted RNA Bind-n-Seq;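 also: DESeq read counts versus GST-SBP nonspecific binding control pulldown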", "conditions": "RBNS binding buffer: 25 mM Tris pH 7.5, 150 mM KCl, 3 mM MgCl2, 0.1% Tween, 0.5 mg/mL BSA, 1 mM DTT; 27 nM protein, 750 pM RNA pool; temperature not stated; high values mean tight binding", "values": [{"sequence": "GGUCACGUCUCAAUCAACUCCUUAGAGGGGGGGAAAACCCCUUUACCCUCGUUCUCAACAGCUCGCAGUCAAG", "binding signal (log2 fold change)": -0.0759}, {"sequence": "GGUCACGUCUCAAUCAACUCAAUGUCAGGAGUUUCCUCCUGCUUUCUCAACAGCUCGCAGUCAAG", "binding signal (log2 fold change)": -0.113}, {"sequence": "GGUCACGUCUCAAUCAACUCAGUCUCCAGGGAAAGCCCUGGCUUUUUCAACAGCUCGCAGUCAAG", "binding signal (log2 fold change)": -0.173}, {"sequence": "GGUCACGUCUCAAUCAACUCAAUCUCAGGAGUUUUCUCCUGCUUAUUCAACAGCUCGCAGUCAAG", "binding signal (log2 fold change)": 0.107}, {"sequence": "GGUCACGUCUCAAUCAACUCAACAGAGGGGGGGAAAACCCCUUUACCCUCAUCAUCAACAGCUCGCAGUCAAG", "binding signal (log2 fold change)": -0.0881}, {"sequence": "GGUCACGUCUCAAUCAACUCUUUCCCCAGGGAAACCCCUGGUAAUCUCAACAGCUCGCAGUCAAG", "binding signal (log2 fold change)": -0.315}, {"sequence": "GGUCACGUCUCAAUCAACUCAUUCUCCAGGGAAACCCCUGGCUUUUUCAACAGCUCGCAGUCAAG", "binding signal (log2 fold change)": 0.0546}, {"sequence": "GGUCACGUCUCAAUCAACUCUUCGUCAGGAGUUUUCUCCUGCAAUCUCAACAGCUCGCAGUCAAG", "binding signal (log2 fold change)": 0.00878}, {"sequence": "GGUCACGUCUCAAUCAACUCUUUCCCAGGAGUUUACUCCUGUUAAUUCAACAGCUCGCAGUCAAG", "binding signal (log2 fold change)": 0.0353}, {"sequence": "GGUCACGUCUCAAUCAACUCAUCCUCAGGAGUUUACUCCUGCAAUUUCAACAGCUCGCAGUCAAG", "binding signal (log2 fold change)": -0.322}, {"sequence": "GGUCACGUCUCAAUCAACUCUAUUCCCAGGGAAAACCCUGGUUUUCUCAACAGCUCGCAGUCAAG", "binding signal (log2 fold change)": -0.34}, {"sequence": "GGUCACGUCUCAAUCAACUCAUCGUCAGGAGUUUGCUCCUGUAUAUUCAACAGCUCGCAGUCAAG", "binding signal (log2 fold change)": 0.235}, {"sequence": "GGUCACGUCUCAAUCAACUCAUCGGCAGGAGUUUACUCCUGGAUAUUCAACAGCUCGCAGUCAAG", "binding signal (log2 fold change)": 0.0378}, {"sequence": "GGUCACGUCUCAAUCAACUCUAUCUCCAGGGAAAUCCCUGGCUAUUUCAACAGCUCGCAGUCAAG", "binding signal (log2 fold change)": 0.136}, {"sequence": "GGUCACGUCUCAAUCAACUCACUAGAGGGGGGGAAAACCCCUUUACCCUCCGUAUCAACAGCUCGCAGUCAAG", "binding signal (log2 fold change)": 0.189}, {"sequence": "GGUCACGUCUCAAUCAACUCUCUAGAGGGGGGGAAAACCCCUUUACCCUCAAAAUCAACAGCUCGCAGUCAAG", "binding signal (log2 fold change)": -0.205}, {"sequence": "GGUCACGUCUCAAUCAACUCAUACGAGGGGGGGAAAACCCCUUUGCCCUCAUUCUCAACAGCUCGCAGUCAAG", "binding signal (log2 fold change)": -0.629}, {"sequence": "GGUCACGUCUCAAUCAACUCAUCGCCCAGGGAAAGCCCUGGUAAAUUCAACAGCUCGCAGUCAAG", "binding signal (log2 fold change)": -0.795}, {"sequence": "GGUCACGUCUCAAUCAACUCAAAAGAGGGGGGGAAAACCCCUUUGCCCUCACAAUCAACAGCUCGCAGUCAAG", "binding signal (log2 fold change)": 0.31}, {"sequence": "GGUCACGUCUCAAUCAACUCAGUUCCAGGAGUUUCCUCCUGCAUAUUCAACAGCUCGCAGUCAAG", "binding signal (log2 fold change)": 0.0258}, {"sequence": "GGUCACGUCUCAAUCAACUCAAUCCCCAGGGAAAUCCCUGGUUAAUUCAACAGCUCGCAGUCAAG", "binding signal (log2 fold change)": 0.035}, {"sequence": "GGUCACGUCUCAAUCAACUCUUCGUCCAGGGAAAGCCCUGGUUUUCUCAACAGCUCGCAGUCAAG", "binding signal (log2 fold change)": -0.0976}, {"sequence": "GGUCACGUCUCAAUCAACUCUUCGUCCAGGGAAAGCCCUGGUAAAUUCAACAGCUCGCAGUCAAG", "binding signal (log2 fold change)": 0.0243}, {"sequence": "GGUCACGUCUCAAUCAACUCAAUCCCAGGAGUUUUCUCCUGCUAUCUCAACAGCUCGCAGUCAAG", "binding signal (log2 fold change)": 0.211}, {"sequence": "GGUCACGUCUCAAUCAACUCUCCCGAGGGGGGGAAAACCCCUUUACCCUCACUCUCAACAGCUCGCAGUCAAG", "binding signal (log2 fold change)": 0.234}, {"sequence": "GGUCACGUCUCAAUCAACUCAUUUUCCAGGGAAAUCCCUGGCAUAUUCAACAGCUCGCAGUCAAG", "binding signal (log2 fold change)": 0.33}, {"sequence": "GGUCACGUCUCAAUCAACUCAAUUCCAGGAGUUUGCUCCUGCUAAUUCAACAGCUCGCAGUCAAG", "binding signal (log2 fold change)": 0.294}, {"sequence": "GGUCACGUCUCAAUCAACUCAGUCCCCAGGGAAAGCCCUGGCAAAUUCAACAGCUCGCAGUCAAG", "binding signal (log2 fold change)": -0.243}, {"sequence": "GGUCACGUCUCAAUCAACUCUUUCGCAGGAGUUUUCUCCUGGUUAUUCAACAGCUCGCAGUCAAG", "binding signal (log2 fold change)": -0.102}, {"sequence": "GGUCACGUCUCAAUCAACUCCCCAGAGGGGGGGAAAACCCCUUUACCCUCAAUUUCAACAGCUCGCAGUCAAG", "binding signal (log2 fold change)": -0.476}, {"sequence": "GGUCACGUCUCAAUCAACUCACAAGAGGGGGGGAAAACCCCUUUACCCUCGUCCUCAACAGCUCGCAGUCAAG", "binding signal (log2 fold change)": 0.385}, {"sequence": "GGUCACGUCUCAAUCAACUCAACUCCAGGAGUUUACUCCUGCAAUGUCAACAGCUCGCAGUCAAG", "binding signal (log2 fold change)": 0.0962}, {"sequence": "GGUCACGUCUCAAUCAACUCUAUCCCAGGAGUUUACUCCUGCAUAUUCAACAGCUCGCAGUCAAG", "binding signal (log2 fold change)": -0.0994}, {"sequence": "GGUCACGUCUCAAUCAACUCUAUUUCAGGAGUUUCCUCCUGUUUUCUCAACAGCUCGCAGUCAAG", "binding signal (log2 fold change)": -0.03}, {"sequence": "GGUCACGUCUCAAUCAACUCAUCGUCAGGAGUUUUCUCCUGUAAAUUCAACAGCUCGCAGUCAAG", "binding signal (log2 fold change)": 0.0518}, {"sequence": "GGUCACGUCUCAAUCAACUCUUCUCCAGGAGUUUACUCCUGUAUACUCAACAGCUCGCAGUCAAG", "binding signal (log2 fold change)": -0.0724}, {"sequence": "GGUCACGUCUCAAUCAACUCAAUUCCAGGAGUUUCCUCCUGCUUUUUCAACAGCUCGCAGUCAAG", "binding signal (log2 fold change)": 0.00527}]}]}
